The record followed here is the RNAGym collection of RNA variant scans (doi:10.7554/elife.90254).

To fix the notation:
B1: LINE1-mini (parent)
chain: GGCAGAGCUCAACACAGCGUGGCAAAGUGGCUGUGGCUAGACUGCC

The source gives no read counts; variants with many changes may rest on few reads.

The variants in this data set derive from B1. Briefly: self-cleavage, relative activity (ratio to wild type); higher = more cleavage; in vitro, sequencing; the parent is a self-cleaving ribozyme.
On to GGCAGAGCUCAACACAGCGUGGCUAAGUGGCUGCGCCUAGACUGCC [A24U U34C G36C], for which the self-cleavage is 0.06. Then GGCAGAGCUCAACACAGCGUGGCAGAGUUGCUGUGGAGAGACUGCC [A25G G29U C37A U38G], with 0.01.

As for GGCAGAGCUCAACACAGCGUGGCAUAGUGGGUGUGGCUAGACUGUC [A25U C31G C45U], the self-cleavage stood at 0.05.

With GGCAGAGCUCAACACAGCGUGGCUAAGUGGCUGAGGCUAGCCUGCC [A24U U34A A41C], the self-cleavage came to 0.03.

Take GGCAGAGCUCAACACAGCGUGGCACAGUGGAUGUGUCUAGAUUGCC [A25C C31A G36U C42U]: the self-cleavage was determined as 0.03. The figure for GGCAGAGCUCAACACAGCGUGGCACAGUGGCUAUGGCUAGACUGUC [A25C G33A C45U] is 0.05; for GGCAGAGCUCAACACAGCGUGGCAUUGUGGAUGUGGCUAGACUGCC [A25U A26U C31A] it is 0.04; for GGCAGAGCUCAACACAGCGUGGCAGAGUGGUUGUGGCUUGACUGCC [A25G C31U A39U] it is 0.05.

On to GGCAGAGCUCAACACAGCGUGGCACAGUGGCUGAGGCUAGAAUGCC [A25C U34A C42A], for which the self-cleavage turned out to be 0.08.

As for GGCAGAGCUCAACACAGCGUGGCACAGUGGCCGUGACUAGUCUGCC [A25C U32C G36A A41U], the self-cleavage came out at 0.16. GGCAGAGCUCAACACAGCGUGGCACAGUGGUUAUGGCUAGACUGCC [A25C C31U G33A]: the self-cleavage worked out at 0.04. Then GGCAGAGCUCAACACAGCGUGGCAGAGUGGCGGUGGCUAGACUGCA [A25G U32G C46A], with 0.02; and GGCAGAGCUCAACACAGCGUGGCAGAGGGGCUGUGGCUAGACUGAC [A25G U28G C45A], with 0.22. As to GGCAGAGCUCAACACAGCGUGGCAGAGUGUCUAUGGCUAGACUGCC [A25G G30U G33A], the self-cleavage turned out to be 0. As to GGCAGAGCUCAACACAGCGUGGCAGAGUGGCUGUCUCUAGACUGCC [A25G G35C G36U], the self-cleavage turned out to be 0.02. In the case of GGCAGAGCUCAACACAGCGUGGCAGAGGGUCUGUUGAUAGACUGUC [A25G U28G G30U G35U C37A C45U], the self-cleavage turned out to be 0.02.

GGCAGAGCUCAACACAGCGUGGCUAAGUGGCGGUGGCUAAACUGGC [A24U U32G G40A C45G]: the self-cleavage was determined as 0.06. Turning to GGCAGAGCUCAACACAGCGUGGCAUAGUGGUUGUGGCUAGACUGGC [A25U C31U C45G], the self-cleavage was 0.07.

Consider GGCAGAGCUCAACACAGCGUGGCAGAGUGGCUGUCGCUAGACUGCA [A25G G35C C46A], for which the self-cleavage worked out at 0.19. As for GGCAGAGCUCAACACAGCGUGGCACAGUGGCUGUGGCUCUACUUCC [A25C A39C G40U G44U], the self-cleavage is 0.02. In the case of GGCAGAGCUCAACACAGCGUGGCAUAGUGGCUGUGGCUGGAGCGCC [A25U A39G C42G U43C], the self-cleavage turned out to be 0.01.

On to GGCAGAGCUCAACACAGCGUGGCACAGUGGCUGUGGUUAGUCAGAC [A25C C37U A41U U43A C45A], for which the self-cleavage was 0.01. GGCAGAGCUCAACACAGCGUGGCACAGUGGCUGUGGCUAUACUGGC [A25C G40U C45G]: the self-cleavage was 0.02.

In the case of GGCAGAGCUCAACACAGCGUGGCAGAGUGGCUGUGUCUAGACUGCA [A25G G36U C46A], the self-cleavage came out at 0.03. Consider GGCAGAGCUCAACACAGCGUGGCAGAUUGGCUGUGGUUAGACUGCC [A25G G27U C37U], for which the self-cleavage was 0.02. Take GGCAGAGCUCAACACAGCGUGGCAGAGUGGCUGGGGCUUGACUGCC [A25G U34G A39U]: the self-cleavage came to 0.01. Regarding GGCAGAGCUCAACACAGCGUGGCACAGUGGCGGUCGCUAGACUGCC [A25C U32G G35C], the self-cleavage amounted to 0.1.

Regarding GGCAGAGCUCAACACAGCGUGGCAUAGUGGCUGUGGCUAGCGUGCC [A25U A41C C42G], the self-cleavage was determined as 0.25. On to GGCAGAGCUCAACACAGCGUGGCAGAGUUGCUGUGUCUAGACUGCC [A25G G29U G36U], for which the self-cleavage was found to be 0.01.

In the case of GGCAGAGCUCAACACAGCGUGGCACAGUGGUUGUGGUUAGACUGCC [A25C C31U C37U], the self-cleavage amounted to 0.1.

For the variant GGCAGAGCUCAACACAGCGUGGCAGAGUGAAUGUGGCUAGACUGCC [A25G G30A C31A], the self-cleavage was determined as 0.33. Consider GGCAGAGCUCAACACAGCGUGGCUAAGUGGCUGGGGCUAAACUGCC [A24U U34G G40A], for which the self-cleavage was 0.04.

As for GGCAGAGCUCAACACAGCGUGGCACAGUGGCUGUGGCUAGGCUUCC [A25C A41G G44U], the self-cleavage amounted to 0.08. As to GGCAGAGCUCAACACAGCGUGGCACAGUGGCUGUGUCUAUACUGCC [A25C G36U G40U], the self-cleavage was 0.05. Consider GGCAGAGCUCAACACAGCGUGGCAGAAUGGCUGCGGCUAGACUGCC [A25G G27A U34C], for which the self-cleavage came to 0.04. Then GGCAGAGCUCAACACAGCGUGGCACAUAGGGUGUGGCUAGACUGCC [A25C G27U U28A C31G], with 0.08; and GGCAGAGCUCAACACAGCGUGGCACAGUGGCUGUGCCUAGGAUGCC [A25C G36C A41G C42A], with 0.01. Turning to GGCAGAGCUCAACACAGCGUGGCAGAUUGGCUGUAGCUAGACUGCC [A25G G27U G35A], the self-cleavage came to 0.01. GGCAGAGCUCAACACAGCGUGGCAUAGUGGCUGUGGCUAGCCUGCA [A25U A41C C46A]: the self-cleavage came out at 0.09. The figure for GGCAGAGCUCAACACAGCGUGGCACAAUGGCUGAGGCUAGACUGCC [A25C G27A U34A] is 0.19; for GGCAGAGCUCAACACAGCGUGGCACAUUGGCAGUGGCUAGACUGCC [A25C G27U U32A] it is 0.12; for GGCAGAGCUCAACACAGCGUGGCAGAGUGGCUGGGGCUAGACUGCA [A25G U34G C46A] it is 0.04. Consider GGCAGAGCUCAACACAGCGUGGCACGGUUGCUGUUGCUAGAGUGCC [A25C A26G G29U G35U C42G], for which the self-cleavage came out at 0.06. As for GGCAGAGCUCAACACAGCGUGGCUAAGGGGCUCUGGCUAGACUGCC [A24U U28G G33C], the self-cleavage is 0.01. For GGCAGAGCUCAACACAGCGUGGCACAGUGUCUGUGGCUAGACAGCC [A25C G30U U43A], the self-cleavage was found to be 0.06.

For the variant GGCAGAGCUCAACACAGCGUGGCACAGUGGCUGUGGCUAAACGGCC [A25C G40A U43G], the self-cleavage came out at 0.01. Take GGCAGAGCUCAACACAGCGUGGCACAGUGGGUGUGGCUAGGCUGCC [A25C C31G A41G]: the self-cleavage came to 0.04. Turning to GGCAGAGCUCAACACAGCGUGGCAUGGUGGCUGUGGCUAGACUAAC [A25U A26G G44A C45A], the self-cleavage is 0.01. In the case of GGCAGAGCUCAACACAGCGUGGCAGAGUAGCUGGGGCUAGACUGCC [A25G G29A U34G], the self-cleavage was 0.23. As to GGCAGAGCUCAACACAGCGUGGCAUAGUGGGUGGGGCUAGACUUCC [A25U C31G U34G G44U], the self-cleavage turned out to be 0.03. The figure for GGCAGAGCUCAACACAGCGUGGCAGAGUAGCUGUGGCUAGACCGCC [A25G G29A U43C] is 0.06; for GGCAGAGCUCAACACAGCGUGGCACAGUACCUGUGGCUAGACUGCC [A25C G29A G30C] it is 1.3. Consider GGCAGAGCUCAACACAGCGUGGCACAGUGGAUGUGACUAGACUGCC [A25C C31A G36A], for which the self-cleavage came to 0.08. As to GGCAGAGCUCAACACAGCGUGGCAGAGUGGCUGUGGCUGGAAUGCC [A25G A39G C42A], the self-cleavage was 0.

As for GGCAGAGCUCAACACAGCGUGGCACAGUGGCAGCGGCUAGACUGCC [A25C U32A U34C], the self-cleavage came out at 0.03. Then GGCAGAGCUCAACACAGCGUGGCUAAGUGGCUGUGGCCAGAAUGCC [A24U U38C C42A], with 0.07.
